{"source": "PubChem BioAssay AID686979", "about": "(National Center for Advancing Translational Sciences (NCATS), 2013)", "note": "In all, about 420,000 compounds went through this assay and about 50,000 (12%) were called active. The inconclusive results got no clear call from the source; some entries with a clear call stand among them for comparison. Calls come from the whole dose curve; as a rule, active = well fitted inhibition curve with a large enough effect; inconclusive = small, poorly fitted or top-dose-only effect; inactive = flat fitted curve, though single readings scatter. Potencies of inconclusive entries are left out as doubtful fits. % is set by controls: 0 for no effect and ±100 for the full control effect; potency is the fitted concentration of half-maximal effect; tags give direction and shape of the fitted curve."}
{"test": "qHTS for Inhibitors of human tyrosyl-DNA phosphodiesterase 1 (TDP1): qHTS in cells in presence of CPT; note: nearly all actives have a fitted effect of over 55% in size", "details": "chicken DT40 Tdp1-/-;hTDP1 cells + 20 nM CPT, ATP luminescence, 48 h; activity change, negative = growth inhibition: at 46.2 µM (top of the series) unless noted", "in_short": "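Chicken DT40 Tdp1-/- cells stably complemented with human TDP1 were seeded at 400 cells/well in medium containing 20 nM camptothecin, exposed to pin-transferred compounds, and grown at 37 °C for at least 48 hr. Viability was read as ATP luminescence.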"}
{"smiles": "COc1ccc(NS(=O)(=O)c2ccc(Oc3ncccn3)cc2)cc1", "Potency": "inconclusive [inhibitor, single point]"}
{"smiles": "CNc1ccc(Br)cc(C(=O)/C=C/c2ccc(OC)cc2)c1=O", "Potency": "active: 6.51 µM"}
{"smiles": "O=C(O)c1cc(O)ccc1NC(=O)C(c1ccccc1)c1ccccc1", "activity change, negative = growth inhibition": "inactive: 4.6%"}
{"smiles": "Cc1ccc2nc(C(=O)N3CCc4c([nH]c5ccccc45)C3c3ccccn3)cn2c1", "note": "(stereo not drawn)", "Potency": "inconclusive [inhibitor, single point]"}
{"smiles": "CCn1c(SCc2ccccc2)nc2ccccc2c1=O", "activity change, negative = growth inhibition": "inactive: -5.57%"}
{"smiles": "COc1ccccc1CCC(=O)OCC(=O)c1c(N)n(CC(C)C)c(=O)n(C)c1=O", "Potency": "inconclusive [inhibitor, single point]"}
{"smiles": "CC1CC(C)CN(S(=O)(=O)c2cccc3cccnc23)C1", "note": "(stereo not drawn)", "Potency": "inconclusive [inhibitor, partial curve, poor fit]"}
{"smiles": "Cc1c(C(=O)N2CCOCC2)c(S(=O)(=O)Nc2ccccc2)c(C)n1C", "activity change, negative = growth inhibition": "inactive: 2.02%"}
{"smiles": "O=C(NCc1ccccc1)c1cc(C2CCCCN2C(=O)c2cccs2)on1", "note": "(stereo not drawn)", "Potency": "active: 18.4 µM"}
{"smiles": "Cc1ccc(S(=O)(=O)N2CCN(C(=O)CN3CCOCC3)C2c2ccccc2)cc1", "note": "(stereo not drawn)", "Potency": "inconclusive [inhibitor, partial curve, poor fit]"}
{"smiles": "CCCCNC(=S)NC1CCCC1", "activity change, negative = growth inhibition": "inactive: -19%"}
{"smiles": "COc1ccc(C/C(C)=N/NC(=S)Nc2ccc(C)c(C)c2)cc1", "Potency": "active: 16.4 µM"}
{"smiles": "O=C(CCn1c(=O)c2cccn2c2cccnc21)NCc1ccccc1Br", "activity change, negative = growth inhibition": "inactive: 5.14%"}
{"smiles": "CCOc1ncccc1C(=O)Nc1cc2c(cc1Br)OCCO2", "Potency": "active: 20.6 µM"}
{"smiles": "COc1ccc(NC(=O)Nc2ccc(C(=O)N3CCOCC3)cc2)c(OC)c1", "activity change, negative = growth inhibition": "inactive: -6.39%"}
{"smiles": "COc1cc2cc(C)c(Br)c(OC)c2cc1OC", "Potency": "inconclusive [inhibitor, single point]"}
{"smiles": "Cc1ccc(S(=O)(=O)N(C)CC(=O)OCC(=O)N2CCN(c3ccccc3)CC2)cc1", "activity change, negative = growth inhibition": "inactive: -26.1%"}
{"smiles": "C/C(CC(=O)Nc1ccc(C)c(Cl)c1)=N\\NC(=O)c1cccc(O)c1", "activity change, negative = growth inhibition": "inconclusive: -31.8% [inhibitor]"}
{"smiles": "COc1cccc(CNC(=O)CCS(=O)(=O)c2ccccc2Cl)c1", "activity change, negative = growth inhibition": "inactive: 13.6%"}
{"smiles": "CCOc1ccc(-c2noc(CSc3nnc(-c4ccccc4)n3-c3ccccc3)n2)cc1", "Potency": "active: 20.6 µM"}
{"smiles": "Cc1occc1C(=O)Nc1c(Cl)cccc1Cl", "Potency": "inconclusive [inhibitor, single point]"}
{"smiles": "C/C(=N\\NC(=O)CSc1nc2ccccc2s1)c1ccco1", "Potency": "inconclusive [inhibitor, single point]"}
{"smiles": "CCC(=O)Nc1ccc(C)cc1-c1nc2ccccc2n(C(C)C(=O)Nc2ccccc2CC)c1=O", "note": "(stereo not drawn)", "Potency": "active: 18.4 µM"}
{"smiles": "CCCN(CC(=O)Nc1ccccc1C)C(=O)/C=C/c1ccc(OCC)c(OC)c1", "Potency": "inconclusive [inhibitor, single point]"}
{"smiles": "CC(C)(C)n1ncc2c(=O)n(CC(=O)N3CCc4ccccc43)cnc21", "Potency": "inconclusive [inhibitor, single point]"}
{"smiles": "Cc1ccc(Cn2c(C)nc3ccc([N+](=O)[O-])cc3c2=O)cc1", "Potency": "active: 18.4 µM"}
{"smiles": "C/C(N)=C(/C#N)C(=O)CSc1cc(C)c2cc(C)cc(C)c2n1", "Potency": "inconclusive [inhibitor, single point]"}
{"smiles": "COC(=O)c1cc(S(=O)(=O)NCC2CCN(Cc3ccc(Cl)cc3)CC2)cn1C", "Potency": "inconclusive [inhibitor, single point]"}
{"smiles": "CSCCC(NS(=O)(=O)c1ccccc1F)C(=O)NCCCn1nc(C)cc1C", "note": "(stereo not drawn)", "activity change, negative = growth inhibition": "inactive: -12.4%"}
{"smiles": "COc1ccc(-c2nc3ncnn3cc2C)cc1F", "activity change, negative = growth inhibition": "inactive: 6.4%"}
{"smiles": "CCOC(=O)c1cccc(NC(=O)C2CCCN(c3nnc(N4CCCC4=O)s3)C2)c1", "note": "(stereo not drawn)", "Potency": "inconclusive [inhibitor, partial curve, poor fit]"}
{"smiles": "CC(=O)[C@H]1CC[C@H]2[C@@H]3CC=C4C[C@@H](OS(=O)(=O)O)CC[C@]4(C)[C@H]3CC[C@]12C", "activity change, negative = growth inhibition": "inactive: 16.7%"}
{"smiles": "CN(CC(=O)NCc1ccccc1Cl)CC(=O)Nc1ccccc1Br", "Potency": "inconclusive [inhibitor, partial curve]"}
{"smiles": "Cc1nc2cc(NC(=O)[C@@H]3C[C@@H](Sc4ccccn4)CN3C3CCCCCC3)ccc2s1", "activity change, negative = growth inhibition": "inactive: 15.5% [at 9.04 µM]"}
{"smiles": "O=C(Nc1ccccc1)Nc1scc2c1c(=O)oc1ccccc12", "Potency": "inconclusive [inhibitor, single point]"}
{"smiles": "Cc1ccc(C(=O)/C=C/Nc2ccc(S(=O)(=O)Nc3cc(C)nc(C)n3)cc2)cc1", "Potency": "inconclusive [inhibitor, partial curve]"}
{"smiles": "O=C(Nc1cccc(S(=O)(=O)N2CCCCC2)c1)C1CCN(C(=O)c2ccc(Cl)cc2)CC1", "Potency": "inconclusive [inhibitor, single point]"}
{"smiles": "CC1(C(=O)NS(=O)(=O)c2cccc(OC(F)F)c2)CCN1C(=O)CC1CCCC1", "note": "(stereo not drawn)", "activity change, negative = growth inhibition": "inactive: -18.9%"}
{"smiles": "Cc1sc2ccccc2[n+]1CCCCBr", "Potency": "active: 3.98 µM"}
{"smiles": "CCOc1cc(OCC)cc(C(=O)N2CCC[C@H]2C(=O)N2CCC[C@H]2C(=O)N(C)Cc2ccccc2)c1", "activity change, negative = growth inhibition": "inactive: 5.62%"}
{"smiles": "CCN(CC)CCCNC(=O)CCCn1c(=O)[nH]c2ccc(Br)cc2c1=O", "activity change, negative = growth inhibition": "inactive: -5.74%"}
{"smiles": "CCC(C(=O)N1CCN(c2cc(Cl)ccc2C)CC1)n1nc(C)c2sc3ccccc3c2c1=O", "note": "(stereo not drawn)", "activity change, negative = growth inhibition": "inactive: -2.77%"}
{"smiles": "O=C1c2cccc(NCCCNCCO)c2C(=O)c2cccc(NCCCNCCO)c21", "Potency": "active: 5.8 µM"}
{"smiles": "CCOc1ccc(CN2CCN(c3ncnc4scc(-c5ccccc5)c34)CC2)cc1", "Potency": "inconclusive [inhibitor, single point]"}
{"smiles": "OCCN=C1CCCc2c1[nH]c1ccc(Br)cc21", "Potency": "inconclusive [inhibitor, partial curve]"}
{"smiles": "O=C1c2ccc(Oc3cccc([N+](=O)[O-])c3)cc2C(=O)N1c1ccccn1", "Potency": "inconclusive [inhibitor, single point]"}
{"smiles": "CC(C)(C)OC(=O)N1CCC[C@@H]1CO", "activity change, negative = growth inhibition": "inactive: -2.75%"}
{"smiles": "Fc1cccc(CNC2CCN(CCc3ccccc3)CC2)c1", "Potency": "inconclusive [inhibitor, single point]"}
